# Reference: PubChem BioAssay AID360 (National Center for Advancing Translational Sciences (NCATS), 2006)
# The campaign covered roughly 48,000 compounds. About 550 (1.1%) were called active. Roughly 4% stayed inconclusive and do not appear here. Cut-off read from the data, not from the text of the source: active = potency below about 15 µM; inconclusive = mostly about 16 µM to 33 µM; inactive = weaker than that. This is one part of the list.
# Target: Lysosomal acid glucosylceramidase (Homo sapiens) (UniProt P04062)
# UniProt P04062, sequence (P04062 whole entry, looked up): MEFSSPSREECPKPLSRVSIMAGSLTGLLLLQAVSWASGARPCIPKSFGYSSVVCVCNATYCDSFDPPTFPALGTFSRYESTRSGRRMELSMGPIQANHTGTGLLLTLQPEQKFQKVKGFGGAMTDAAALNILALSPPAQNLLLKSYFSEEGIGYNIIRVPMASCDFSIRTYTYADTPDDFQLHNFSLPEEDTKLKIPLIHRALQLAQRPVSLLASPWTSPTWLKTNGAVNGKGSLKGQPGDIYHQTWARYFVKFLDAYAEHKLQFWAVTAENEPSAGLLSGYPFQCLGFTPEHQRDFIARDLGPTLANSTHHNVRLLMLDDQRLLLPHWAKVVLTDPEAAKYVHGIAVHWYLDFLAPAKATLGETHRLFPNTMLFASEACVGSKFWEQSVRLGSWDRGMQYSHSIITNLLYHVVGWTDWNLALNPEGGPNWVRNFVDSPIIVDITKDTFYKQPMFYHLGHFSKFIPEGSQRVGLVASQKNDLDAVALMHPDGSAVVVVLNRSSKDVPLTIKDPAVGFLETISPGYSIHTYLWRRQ
# Test: Glucocerebrosidase;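 note: the screen sought inhibitors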
# Settings: purified enzyme, resorufin glucoside fluorescence (screen aimed at inhibitors), 20 min; series mostly up to 77 µM
# From the text: NCGC Assay Overview: Beta-glucocerebrosidase catalyzes the hydrolysis of beta-glucocerebroside to glucose and ceramide. The inherited deficiency of beta-glucocerebrosidase results in Gaucher disease, which is characterized by a wide variety of symptoms including hepatosplenomegaly, anemia, thrombocytopenia, bony lesions and bone marrow infiltration with characteristic storage cells, known as Gaucher cells. There are also forms of the disorder affecting the central nervous system. Patients with the same genotypes can manifest with diverse clinical presentations and it is believed that improper folding and trafficking of beta-glucocerbrosidase may contribute to the phenotypes observed. Low molecular weight molecules, acting as chaperones, may potentially restore trafficking of misfolded beta-glucocerebrosidase from the endoplasmic reticulum to the lysosomes, thereby enhancing functional lysosomal beta-glucocerebrosidase activity. Using normal beta-glucocerebrosidase, an assay was developed to screen for small molecule inhibitors that could potentially act as molecular chaperones on the mutant forms [developed with NIH investigator Dr. Ellen Sidransky's laboratory]. Two pro-fluorescent substrates were chosen for two screens against a small molecule library. One beta-glucocerebrosidase assay used Resorufin beta-D-Glucopyranoside (Marker Gene Technology Inc.), generating a red fluorescent product. The second assay used Fluorescein di-beta-D-Glucopyranoside, generating a blue fluorescent product. […] The IC50 values of Conduritol B Epoxide, a known glucocerebrosidase inhibitor, were determined to be 87.5 uM and 117 uM, respectively. The use of two difference pro-fluorescent substrates in the screens helped to eliminate false positives. All compounds were screened in a titration series resulting in AC50s (e.g., IC50s or EC50s).
# NCGC Assay Protocol Summary: Both enzyme and substrate were diluted in buffer composed of 50mM citric acid/KH2PO4, 10mM sodium taurocholate and 0.01% tween-20 at pH 5.9. The final concentration of the enzyme was 0.2 nM in both assays. The compound library was titrated in 7 to 15 concentrations for the primary screens with a final concentration ranging from 0.6 nM to 50 uM. This particular assay protocol is for the "red" substrate, and it was performed in 1536-well plate format as follows: Red fluorescence substrate assay: 2 uL enzyme 23 nL compound 1 uL substrate (final concentration of 30 uM) Incubate at room temperature (RT) for 20 minutes Read the plate in Viewlux plate reader (Ex=548(7) and Em=600(10)).
# Potency is the fitted concentration of half-maximal effect.
row,SMILES,Potency
1,O=S(=O)(c1cccc(C(F)(F)F)c1)N(CCCN1CCOCC1)Cc1cccs1,active: 10.9 µM
2,Cc1nc(NCCc2cnc[nH]2)c2oc3ccccc3c2n1,inactive: > 76.9 µM
3,O=C1Nc2ccccc2SC(c2ccccc2)C1O (stereo not given),inactive: > 76.9 µM
4,COC(=O)c1[nH]c2c(c1C)C(=O)CCC2,inactive: > 76.9 µM
5,COc1ccc(NC(=O)c2cccs2)cc1OC,inactive: > 76.9 µM
6,COc1cc2c(OC)cccc2cc1C(=O)O,inactive: > 76.9 µM
7,CCOc1ccccc1NC(=O)N1CCCC1C(=O)Nc1nnc(CC)s1 (stereo not given),inactive: > 76.9 µM
8,O=C(O)CCC(=O)Nc1ccc2c(c1)oc1ccccc12,inactive: > 76.9 µM
9,Cc1cccc(NCc2ccccc2O)c1C,inactive: > 76.9 µM
10,COc1ccc(NS(=O)(=O)c2cc(C(=O)O)ccc2C)cc1,inactive: > 76.9 µM
11,CC(=O)OC1CCC(OC(C)=O)c2c1n([O-])c(C)c(C)[n+]2=O (stereo not given),inactive: > 76.9 µM
12,O=S(=O)(Nc1ncnc2c1oc1ccccc12)c1ccc(Cl)s1,inactive: > 76.9 µM
13,CCOC(=O)N1CCN(S(=O)(=O)c2cc(OCC(N)=O)c(C)cc2Cl)CC1,inactive: > 76.9 µM
14,Cc1cccc(Cn2c(=O)n(CCCC(=O)NCc3ccco3)c(=O)c3ccccc32)c1,inactive: > 76.9 µM
15,COCCn1c(SCC(=O)c2[nH]c(C)c(C(C)=O)c2C)nc2ccccc21,inactive: > 76.9 µM
16,O=C(c1ccccc1)c1nnc(-c2ccccc2F)o1,inactive: > 76.9 µM
17,CCn1c(=S)sc2c(=O)[nH]c(C)nc21,inactive
18,CC(NC(=O)c1ccc(F)cc1)C(c1cccs1)N1CCN(C)CC1 (stereo not given),inactive: > 76.9 µM
19,CNc1nnc(CSc2nc3ccccc3s2)s1,inactive: > 76.9 µM
20,COc1ccc(OCC(O)CON2C(=O)c3ccccc3C2=O)cc1 (stereo not given),inactive: > 76.9 µM

row,SMILES,Potency
1,Cc1noc(NS(=O)(=O)c2ccc(N)cc2)c1C,inactive: > 76.9 µM
2,CCOCCn1c(=O)c2c(nc3n2CCN3c2ccccc2)n(C)c1=O,inactive: > 76.9 µM
3,Cc1cc(NC(=O)COC(=O)c2cc3c(s2)CCC(C)C3)no1 (stereo not given),inactive: > 76.9 µM
4,O=C(CCC1COc2ccccc2O1)N1CCCC1 (stereo not given),inactive: > 76.9 µM
5,CCOC(=O)c1c(C)c(C(=O)NCc2cccnc2)c(C)n1C,inactive: > 76.9 µM
6,c1ccc2oc(CCc3nc4ccccc4o3)nc2c1,inactive: > 76.9 µM
7,O=C1CC(N2CCOCC2)C(=O)N1CCN1C(=O)CC(N2CCOCC2)C1=O (stereo not given),inactive: > 76.9 µM
8,COC(=O)CNC(=O)C12CC3(C)CC(C)(CC(C)(C3)C1)C2,inactive: > 76.9 µM
9,COC(=O)C1CCN(C(=O)COC(=O)CC(NC(N)=O)c2ccc(Cl)cc2)CC1 (stereo not given),inactive: > 76.9 µM
10,O=C(Nc1ccccc1-c1nc2ccccc2o1)c1ccc2c(c1)OCCO2,inactive: > 76.9 µM
11,CC(c1ccco1)N(C(=O)COc1ccc(Cl)cc1)c1ccccn1 (stereo not given),inactive: > 76.9 µM
12,CC(C)CCn1c(N)c(S(=O)(=O)c2cccs2)c2nc3ccccc3nc21,inactive: > 76.9 µM
13,COC(=O)c1ccc(CSc2nnc(-c3ccncc3)o2)o1,inactive: > 76.9 µM
14,CC1CCN(c2nc3ccccc3nc2C(C#N)C(=O)OC2CCCCC2)CC1 (stereo not given),inactive: > 76.9 µM
15,Cc1noc(C)c1S(=O)(=O)N1CCCC(C(=O)NCC2CCCO2)C1 (stereo not given),inactive: > 76.9 µM
16,CC(C)OC(=O)c1cc(=O)[nH]c2ccccc12,inactive: > 76.9 µM
17,CC(C)(C)NC(=O)CSc1nnc(NC(=O)CCn2cnc3ccccc3c2=O)s1,inactive: > 76.9 µM
18,O=C1CCCc2nc3nc4ccccc4n3cc21,inactive: > 76.9 µM
19,Cc1ccc(-c2[nH]nc3c2C(c2ccccc2OC(=O)N2CCOCC2)C(C#N)=C(N)O3)cc1 (stereo not given),inactive: > 76.9 µM
20,Cn1c(-c2ccc(N)cc2)nc2ccccc21,inactive: > 76.9 µM

row,SMILES,Potency
1,Cc1cc(Nc2nnnn2-c2ccccc2)n(-c2ccc(Cl)cc2)n1,inactive: > 76.9 µM
2,COc1cc(C2Nc3ccccc3C(=O)N2c2ccccc2OC)ccc1O (stereo not given),inactive: > 76.9 µM
3,Cn1nnnc1SCSc1nnnn1C,inactive: > 76.9 µM
4,Cc1ccsc1C(=O)OCC(=O)NCC1CCCO1 (stereo not given),inactive: > 76.9 µM
5,CC(=O)Nc1ccc(-c2cn3cccnc3n2)cc1,inactive: > 76.9 µM
6,Cc1cc(S(=O)(=O)NCC(C)C)ccc1OCC(=O)N1CCOCC1,inactive: > 76.9 µM
7,O=C(CSc1nc(-c2ccccc2)nc2c1CCCC2)N1CCOCC1,inactive: > 76.9 µM
8,O=C(NS(=O)(=O)c1ccc2c(c1)OCCO2)c1ccccc1,inactive: > 76.9 µM
9,O=C(CCC1CCCCC1)Nc1ncn[nH]1,inactive: > 76.9 µM
10,CC(C)(C)NC(=O)C(c1ccccc1)N(Cc1ccco1)C(=O)c1csnn1 (stereo not given),inactive: > 76.9 µM
11,COc1ccccc1-c1coc2c(CN3CCN(CCO)CC3)c(O)ccc2c1=O,inactive
12,CCCS(=O)(=O)N1CCC(C(=O)NCc2cccnc2)CC1,inactive: > 76.9 µM
13,O=C(CCCOc1ccccc1)Nc1ccc(S(=O)(=O)N2CCOCC2)cc1,inactive: > 76.9 µM
14,O=C(NCc1ccco1)C(c1cccs1)N(C(=O)Cc1cccs1)c1ccccc1 (stereo not given),inactive: > 76.9 µM
15,CC(C)CCn1cnc2c([nH]c3cccc(Cl)c32)c1=O,inactive: > 76.9 µM
16,COc1ccc(S(=O)(=O)NCc2ccccn2)c(Cl)c1Cl,inactive: > 76.9 µM
17,O=C(O)C1CCCCC1C(=O)Nc1cccc(C(=O)N2CCCCC2)c1 (stereo not given),inactive: > 76.9 µM
18,CCOC(=O)C1=C(c2ccccc2)NC(SCC(=O)Nc2cccc(C)c2)=C(C#N)C1c1ccco1 (stereo not given),inactive
19,O=S(=O)(NC1CCN(Cc2ccccc2)CC1)c1cccc(S(=O)(=O)N2CCOCC2)c1,inactive: > 76.9 µM
20,CN(C(=O)c1cccnc1)c1nnc(-c2cnccn2)s1,inactive: > 76.9 µM
